The source of these data is the RNAGym collection of RNA variant scans (doi:10.1073/pnas.2313332121).

This sample is rich in variants without activity. Bounds are passed on as bounds.

B1: TPR 5TU (parent)
chain: GGAUCUUCUCGAUCUAACAAAAAAGACAAAUCUGCCACAAAGCUUGAGAGCAUCUUCGGAUGCAGAGGCGGCAGCCUUCGGUGGCGCGAUAGCGCCAACGUUCUCAACUAUGACACGCAAAACGCGUGCUCCGUUGAAUGGAGUUUAUCAUG

The variants in the data set derive from B1. As to the kind of experiment: polymerase ribozyme fitness, log enrichment relative to wild type (log ratio); higher = more active; in vitro selection for triplet polymerase activity. The gist of the method: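 Fitness measures genotype enrichment against wild-type enrichment on a logarithmic scale, with inverse-variance-weighted averaging of replicates. The logarithm is base 2, and genotypes were kept only with ≥10 input reads and ≥1 read per output in Illumina sequencing. The sequenced libraries came from one triplicate in vitro selection round, including frozen incubation at −7 °C, of PCR-built, transcribed mutant libraries of each subunit of a heterodimeric triplet polymerase ribozyme.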
Turning to A17C G25U A30C U33A A60U U102A, the “polymerase ribozyme fitness (log ratio)” value is ≤ -4.2.

On to A16C C85U C95A C132U, for which the “polymerase ribozyme fitness (log ratio)” value was -3.71.

Regarding A16C U31A C32A G92C A97C A98C C103A C116U C125U, the “polymerase ribozyme fitness (log ratio)” value was ≤ -4.2.

On to A16U A26U A91U C116U G117C, for which the “polymerase ribozyme fitness (log ratio)” value was ≤ -4.2.

As for A17G G50U A66G G92C C95U G141A, the “polymerase ribozyme fitness (log ratio)” value is ≤ -4.2.

Take A16U G83A A110G G112C G141U: the “polymerase ribozyme fitness (log ratio)” value was ≤ -4.2.

As to A17G A21C A24C A26G C27G C87A C103G C108A A122U U134G, the “polymerase ribozyme fitness (log ratio)” value was ≤ -4.2.

For A17G C38A C54G C75G C93U U102A G124U U135C, the “polymerase ribozyme fitness (log ratio)” value is ≤ -4.2.

Take A16G U61A C99G: the “polymerase ribozyme fitness (log ratio)” value was ≤ -4.2.

For A16C A39C U56A U90G A110G C132U, the “polymerase ribozyme fitness (log ratio)” value is ≤ -4.2.

In the case of A16G G86A, the “polymerase ribozyme fitness (log ratio)” value is -0.891.

Take A17G G34A C51U G128U A142G: the “polymerase ribozyme fitness (log ratio)” value is ≤ -4.2.

As for A17C G59A A60C G81C C95U C116U, the “polymerase ribozyme fitness (log ratio)” value was 0.238.

In the case of A16C A24U A26U C36U C79U C118G, the “polymerase ribozyme fitness (log ratio)” value was ≤ -4.2.

Turning to A17G U53A C79A G141C, the “polymerase ribozyme fitness (log ratio)” value is ≤ -4.2.

Take U15G C35G G59U C93G A142G: the “polymerase ribozyme fitness (log ratio)” value was ≤ -4.2.

In the case of A16U A29U U45G U61G C93A, the “polymerase ribozyme fitness (log ratio)” value is ≤ -4.2.

As for A17G A49C C51U G86C, the “polymerase ribozyme fitness (log ratio)” value was ≤ -4.2.

With A16G A37C G65U, the “polymerase ribozyme fitness (log ratio)” value is ≤ -4.2.

For the variant A16G A40C, the “polymerase ribozyme fitness (log ratio)” value was -0.456.

For the variant A16U C93G, the “polymerase ribozyme fitness (log ratio)” value is ≤ -4.2.

On to A16G C72U G136U U148G, for which the “polymerase ribozyme fitness (log ratio)” value was ≤ -4.2.

As to A16U C38U G58C C85G, the “polymerase ribozyme fitness (log ratio)” value is ≤ -4.2.

For the variant A17G A41U U55A C85G A137U U148A, the “polymerase ribozyme fitness (log ratio)” value is ≤ -4.2.

Take A16U A29G A30U U53A U55A G62C U77G C116U: the “polymerase ribozyme fitness (log ratio)” value is ≤ -4.2.

For A16C A73U G88C C95G A98U, the “polymerase ribozyme fitness (log ratio)” value is ≤ -4.2.

On to A16U A150G, for which the “polymerase ribozyme fitness (log ratio)” value is -2.95.

As for A16C G48U A52G C75U U90G G92U A137C, the “polymerase ribozyme fitness (log ratio)” value is ≤ -4.2.

On to A17G G59A C85U G92C C103A A122U, for which the “polymerase ribozyme fitness (log ratio)” value was ≤ -4.2.

A17C A47G C79A G81C G92C: the “polymerase ribozyme fitness (log ratio)” value is ≤ -4.2.

A16G A23G A37U G86A U135A: the “polymerase ribozyme fitness (log ratio)” value is ≤ -4.2.

With U15G C96U, the “polymerase ribozyme fitness (log ratio)” value was -1.19.

For the variant A16C A24C G59A C85G G94A, the “polymerase ribozyme fitness (log ratio)” value was ≤ -4.2.

Regarding A16G U134A, the “polymerase ribozyme fitness (log ratio)” value was -3.15.

Regarding A17G C75A U134A A138U, the “polymerase ribozyme fitness (log ratio)” value was ≤ -4.2.

On to A16C C57U A60G G86U C125U U134G, for which the “polymerase ribozyme fitness (log ratio)” value is -4.12.

As for A17C A28G A30U C54A A91G G94A A137G, the “polymerase ribozyme fitness (log ratio)” value is ≤ -4.2.

For the variant A16C A113U C118G, the “polymerase ribozyme fitness (log ratio)” value was -3.27.

As to A16G A17U C51G C63G A64U, the “polymerase ribozyme fitness (log ratio)” value is ≤ -4.2.

With A16C A40G U55A C76G C96A A113U, the “polymerase ribozyme fitness (log ratio)” value is ≤ -4.2.

As to A17U A19C A24G C87G U90A U111C G141A, the “polymerase ribozyme fitness (log ratio)” value was ≤ -4.2.

Take A16G A22U U77C C96U: the “polymerase ribozyme fitness (log ratio)” value is ≤ -4.2.

A16G C57U C93U A142G U146C C149A A150C: the “polymerase ribozyme fitness (log ratio)” value was ≤ -4.2.

For A17C A20C G100A, the “polymerase ribozyme fitness (log ratio)” value is ≤ -4.2.

For the variant A17G G92A C103A C149A, the “polymerase ribozyme fitness (log ratio)” value was ≤ -4.2.

Take U15G U55G G71C C85U A142U C149U: the “polymerase ribozyme fitness (log ratio)” value was ≤ -4.2.

For the variant A16G A30U C32G C51G U144A U151C, the “polymerase ribozyme fitness (log ratio)” value is ≤ -4.2.

For A17G C32G U33G U77G C87U U101A A147U, the “polymerase ribozyme fitness (log ratio)” value is ≤ -4.2.

For the variant A16G A49U G62A G92A C96A U130C, the “polymerase ribozyme fitness (log ratio)” value is ≤ -4.2.

Regarding U15G C132A, the “polymerase ribozyme fitness (log ratio)” value is -2.26.

Consider U15G G84A C96A A119U, for which the “polymerase ribozyme fitness (log ratio)” value was -2.08.

Regarding A17G A19U G94C G143U U145G, the “polymerase ribozyme fitness (log ratio)” value was ≤ -4.2.

Take A17G A49C G58C C76A C87G C114U: the “polymerase ribozyme fitness (log ratio)” value was ≤ -4.2.

U15G G42A G83U G100C: the “polymerase ribozyme fitness (log ratio)” value was ≤ -4.2.

For A16U G48C U53G C96G A113U, the “polymerase ribozyme fitness (log ratio)” value was ≤ -4.2.

Consider U15G A60G C87G C103G A147C, for which the “polymerase ribozyme fitness (log ratio)” value is ≤ -4.2.

For the variant A17C A23U G42C C75U G86A A138C, the “polymerase ribozyme fitness (log ratio)” value was ≤ -4.2.

For the variant U15G G71C C79A C93U A138U, the “polymerase ribozyme fitness (log ratio)” value is ≤ -4.2.

A17C G71C G84U G100U A107U: the “polymerase ribozyme fitness (log ratio)” value was ≤ -4.2.

Consider A17G A52U G83A C95U, for which the “polymerase ribozyme fitness (log ratio)” value was -3.91.

With A17C C57U A66C G81A U146G U148G, the “polymerase ribozyme fitness (log ratio)” value is ≤ -4.2.

With U15G C27U C54A U56A C72U G80A G81U U90C G92U, the “polymerase ribozyme fitness (log ratio)” value is ≤ -4.2.

As to A17G A21G A29G G81A C93G G112U C118A U135A, the “polymerase ribozyme fitness (log ratio)” value is ≤ -4.2.

Regarding U15G G48A A73C G92C U111A C118G A138U, the “polymerase ribozyme fitness (log ratio)” value is ≤ -4.2.

For the variant A16U C32U A40C C95G C99U G140A A142G, the “polymerase ribozyme fitness (log ratio)” value is ≤ -4.2.

For A16G A29U A49C G70A G71C C87U, the “polymerase ribozyme fitness (log ratio)” value is ≤ -4.2.

With A16U U44G A52G G58U A137G, the “polymerase ribozyme fitness (log ratio)” value is ≤ -4.2.

Consider A16G A20U C99U U102G, for which the “polymerase ribozyme fitness (log ratio)” value is ≤ -4.2.

Take U15G C43A G58C G71A C96A U127A: the “polymerase ribozyme fitness (log ratio)” value is ≤ -4.2.

On to A16C A39C U44A C85G A98U A115G, for which the “polymerase ribozyme fitness (log ratio)” value is ≤ -4.2.

As to A16U U33C C38U G140U, the “polymerase ribozyme fitness (log ratio)” value is ≤ -4.2.

For A16U C35U U55A C57U U90C C114U A121U G133U, the “polymerase ribozyme fitness (log ratio)” value was ≤ -4.2.

In the case of A16G A73U G94U, the “polymerase ribozyme fitness (log ratio)” value was -2.22.

A17C A26C C54U G86A U90C G140C: the “polymerase ribozyme fitness (log ratio)” value was ≤ -4.2.

In the case of A17G U33G G62U G80U C85U A115U U135C U148G, the “polymerase ribozyme fitness (log ratio)” value is ≤ -4.2.

Regarding A17G C43G U77C C108A, the “polymerase ribozyme fitness (log ratio)” value is ≤ -4.2.

Consider A17G C18G A40C C85G A106U G124U C125U, for which the “polymerase ribozyme fitness (log ratio)” value is ≤ -4.2.

A17C C85G C108G G140A: the “polymerase ribozyme fitness (log ratio)” value was ≤ -4.2.

Regarding A17G A40U U44G C69U G83U, the “polymerase ribozyme fitness (log ratio)” value was ≤ -4.2.

For A16C A20C G84U A97U U130C, the “polymerase ribozyme fitness (log ratio)” value is -4.17.

Take A16U A19C A60G C85A G92A G133A A142U: the “polymerase ribozyme fitness (log ratio)” value was ≤ -4.2.

Take A17G G80C A91G: the “polymerase ribozyme fitness (log ratio)” value was ≤ -4.2.

For A16U A91G G112C, the “polymerase ribozyme fitness (log ratio)” value was ≤ -4.2.
